The other results are listed elsewhere or left out. These are noisy estimates, calculated here from bound and input reads.
biological target: T1, Pho4 (S. cerevisiae) (UniProt P07270); experiment: relative binding free energy (BET-seq); higher = weaker binding; conditions: reference: library average
T1 sequence: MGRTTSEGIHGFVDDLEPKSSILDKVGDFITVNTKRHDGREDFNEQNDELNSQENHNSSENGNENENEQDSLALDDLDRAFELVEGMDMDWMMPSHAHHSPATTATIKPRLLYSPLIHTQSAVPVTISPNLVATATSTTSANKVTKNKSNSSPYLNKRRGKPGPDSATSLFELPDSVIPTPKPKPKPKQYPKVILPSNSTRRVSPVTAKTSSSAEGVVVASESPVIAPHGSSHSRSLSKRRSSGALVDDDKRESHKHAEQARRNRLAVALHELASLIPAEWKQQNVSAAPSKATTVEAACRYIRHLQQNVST

Sequence | relative binding free energy
GGGTGCACGTGAATGG | 0.28 kcal/mol
ACTTTCACGTGGGGGT | 0.22 kcal/mol
TCAAACACGTGGGGTT | 0.03 kcal/mol
TTTGCCACGTGTGGGA | -0.14 kcal/mol
GACATCACGTGTGTAT | 0.29 kcal/mol
TGAGACACGTGGTTCG | -0.09 kcal/mol
GTACGCACGTGAGTGT | 0.15 kcal/mol
CTGGGCACGTGTTGCT | -0.14 kcal/mol
TGTGGCACGTGTAAGT | 0.1 kcal/mol
GTGTGCACGTGGCACG | -0.03 kcal/mol
CGGGGCACGTGAAAGT | 0.26 kcal/mol
ATGTGCACGTGTATAC | -0.05 kcal/mol
ACGAGCACGTGGGTTA | -0.01 kcal/mol
AGTGGCACGTGATGCA | 0.01 kcal/mol
AGGTACACGTGTATGG | 0.09 kcal/mol
GTTGCCACGTGGTGAT | -0.04 kcal/mol
GGTATCACGTGTGGGG | 0.24 kcal/mol
CGGTACACGTGGTGGC | -0.09 kcal/mol
TCAGTCACGTGGTACG | 0.02 kcal/mol
TGTTACACGTGGGTCA | -0.13 kcal/mol
GGTAACACGTGGATAG | 0.22 kcal/mol
GAGTACACGTGAGGTA | 0.26 kcal/mol
GGCTGCACGTGTCAGG | 0.04 kcal/mol

Sequence | relative binding free energy
TCGTTCACGTGGTATG | 0.07 kcal/mol
AGTTACACGTGTTCTT | 0.12 kcal/mol
GTTGACACGTGTGTTT | 0.18 kcal/mol
TGTTGCACGTGGGCCG | -0.16 kcal/mol
AGGTGCACGTGACTTA | 0.1 kcal/mol
TAGATCACGTGTATGC | 0.19 kcal/mol
GGGCGCACGTGTAATG | -0.05 kcal/mol
CGGGGCACGTGTGTCT | -0.21 kcal/mol
GTCTTCACGTGTAAGA | 0.36 kcal/mol
TCTGTCACGTGGCTTG | -0.1 kcal/mol
AAAGTCACGTGGATGG | 0.08 kcal/mol
AGATGCACGTGAAGGT | 0.16 kcal/mol
AATATCACGTGAGGTA | 0.51 kcal/mol
GATTTCACGTGGGTAT | 0.16 kcal/mol
TTCTTCACGTGTACTT | 0.29 kcal/mol
TTTTTCACGTGTGACC | 0.41 kcal/mol
AGCTACACGTGGTATT | 0.04 kcal/mol
TGTGTCACGTGAGCGT | 0.17 kcal/mol
GAAGGCACGTGGTTGA | -0.1 kcal/mol
AGTTACACGTGTTGGA | 0.06 kcal/mol
TACGGCACGTGTTGGC | -0.14 kcal/mol
ATTAACACGTGTAATT | 0.13 kcal/mol
ATTAGCACGTGCTATG | -0.11 kcal/mol

Sequence | relative binding free energy
AGTATCACGTGAAATG | 0.29 kcal/mol
GAGAACACGTGTTAGG | 0.19 kcal/mol
TTTTTCACGTGCTTAA | 0.24 kcal/mol
TATGTCACGTGTGTCA | -0.03 kcal/mol
GATGACACGTGGTTTG | 0.01 kcal/mol
GGATGCACGTGCTAGG | -0.1 kcal/mol
TGTGGCACGTGCTCTT | -0.19 kcal/mol
GGACTCACGTGGTGAG | 0.21 kcal/mol
TTGGGCACGTGCGGTG | -0.06 kcal/mol
AGAAGCACGTGAGGGG | 0.3 kcal/mol
TCTCTCACGTGGGAGG | 0.28 kcal/mol
TGCAGCACGTGCTGGG | 0 kcal/mol
GGAGACACGTGGCCGG | 0.07 kcal/mol
GTTAGCACGTGAAGAT | 0.14 kcal/mol
TGAGGCACGTGGTCTT | -0.16 kcal/mol
CGTGGCACGTGGACGT | -0.1 kcal/mol
TATTTCACGTGAAGTG | 0.45 kcal/mol
AGGTTCACGTGGGGGT | 0.17 kcal/mol
TTCTTCACGTGGCTTG | 0.21 kcal/mol
CGATTCACGTGTTTTA | 0.36 kcal/mol
TCTGTCACGTGAATTG | 0.42 kcal/mol
TTGCTCACGTGATGGA | 0.24 kcal/mol
GCGGGCACGTGTAGGC | -0.13 kcal/mol

Sequence | relative binding free energy
GCATTCACGTGTTGTG | 0.18 kcal/mol
ACGGGCACGTGGTTCG | -0.17 kcal/mol
GTTAACACGTGAGTTG | 0.23 kcal/mol
AGTGACACGTGGAGCT | 0.08 kcal/mol
TCTGGCACGTGAGTTA | 0.07 kcal/mol
TAACGCACGTGTAGTG | -0.06 kcal/mol
TTAATCACGTGGGTAG | -0.02 kcal/mol
CGGTGCACGTGTAAAT | 0.15 kcal/mol
GGTGTCACGTGAGGAT | 0.24 kcal/mol
AGTTCCACGTGTGTAT | 0.12 kcal/mol
AGATTCACGTGGGGCG | 0.34 kcal/mol
TTTAGCACGTGATGTG | 0.14 kcal/mol
AAGCACACGTGTAGGG | 0.15 kcal/mol
AAAGACACGTGTTAGT | 0.03 kcal/mol
AGGTGCACGTGAGCTG | 0.2 kcal/mol
AGGTTCACGTGTGCGG | 0.26 kcal/mol
GTTGTCACGTGTTATG | 0.16 kcal/mol
GTAGTCACGTGGTGCC | 0.1 kcal/mol
CTGTTCACGTGAGCGT | 0.3 kcal/mol
TCGCTCACGTGTTGTT | 0.2 kcal/mol
GAAGTCACGTGCTGTT | 0.27 kcal/mol
TGAGTCACGTGTGCTA | 0.15 kcal/mol
AGTTTCACGTGAAATA | 0.31 kcal/mol

Sequence | relative binding free energy
TAATACACGTGGGGAT | -0.1 kcal/mol
ATTCTCACGTGTGCTG | 0.26 kcal/mol
TACTGCACGTGAAGTG | 0.14 kcal/mol
CTGTGCACGTGTCGTT | -0.04 kcal/mol
GGTAGCACGTGTAAGC | 0.15 kcal/mol
ATGTCCACGTGATTGT | 0.13 kcal/mol
GGTAGCACGTGAATGG | 0.24 kcal/mol
CATTGCACGTGCGAGG | -0.01 kcal/mol
GTCAGCACGTGGGGGC | -0.24 kcal/mol
GCGTACACGTGAGGGC | 0.41 kcal/mol
TGTAGCACGTGTTAAT | 0.04 kcal/mol
GTTCGCACGTGGAGGC | 0.02 kcal/mol
TGAGTCACGTGTTAAA | 0.13 kcal/mol
GTTTCCACGTGTGGCA | 0.43 kcal/mol
GTGGTCACGTGCCTGT | 0.07 kcal/mol
TGCGTCACGTGGTCTG | -0.02 kcal/mol
TAGGTCACGTGGTACA | 0 kcal/mol
CATGTCACGTGCTGTG | 0.02 kcal/mol
GTCTTCACGTGGCTGG | 0.29 kcal/mol
TTTTACACGTGGTCAT | -0.04 kcal/mol
TAGTGCACGTGAGTTG | 0.3 kcal/mol
TATGACACGTGGGGCT | -0.19 kcal/mol
TTGTGCACGTGTCTTA | 0.09 kcal/mol

From the BET-seq Pho4 binding data (Le et al. 2018)
